# Measurements taken from PMC4336329 (PLoS ONE, 2015).
# Hit rate of the full screen: of about 310,000 compounds, about 14,000 (4.5%) showed an effect of 50% or more. The effect is printed as a negative number. The list shows a part of the results.
# Target: human ether-à-go-go-related gene (hERG) potassium channel (human, UniProt Q12809)
# Experiment: primary screen, population patch clamp on CHO cells stably expressing hERG
# 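Further: peak tail current of the secondary pulse compared with the same well before compound.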
# Chain of human ether-à-go-go-related gene (hERG) potassium channel (Q12809 whole entry, looked up): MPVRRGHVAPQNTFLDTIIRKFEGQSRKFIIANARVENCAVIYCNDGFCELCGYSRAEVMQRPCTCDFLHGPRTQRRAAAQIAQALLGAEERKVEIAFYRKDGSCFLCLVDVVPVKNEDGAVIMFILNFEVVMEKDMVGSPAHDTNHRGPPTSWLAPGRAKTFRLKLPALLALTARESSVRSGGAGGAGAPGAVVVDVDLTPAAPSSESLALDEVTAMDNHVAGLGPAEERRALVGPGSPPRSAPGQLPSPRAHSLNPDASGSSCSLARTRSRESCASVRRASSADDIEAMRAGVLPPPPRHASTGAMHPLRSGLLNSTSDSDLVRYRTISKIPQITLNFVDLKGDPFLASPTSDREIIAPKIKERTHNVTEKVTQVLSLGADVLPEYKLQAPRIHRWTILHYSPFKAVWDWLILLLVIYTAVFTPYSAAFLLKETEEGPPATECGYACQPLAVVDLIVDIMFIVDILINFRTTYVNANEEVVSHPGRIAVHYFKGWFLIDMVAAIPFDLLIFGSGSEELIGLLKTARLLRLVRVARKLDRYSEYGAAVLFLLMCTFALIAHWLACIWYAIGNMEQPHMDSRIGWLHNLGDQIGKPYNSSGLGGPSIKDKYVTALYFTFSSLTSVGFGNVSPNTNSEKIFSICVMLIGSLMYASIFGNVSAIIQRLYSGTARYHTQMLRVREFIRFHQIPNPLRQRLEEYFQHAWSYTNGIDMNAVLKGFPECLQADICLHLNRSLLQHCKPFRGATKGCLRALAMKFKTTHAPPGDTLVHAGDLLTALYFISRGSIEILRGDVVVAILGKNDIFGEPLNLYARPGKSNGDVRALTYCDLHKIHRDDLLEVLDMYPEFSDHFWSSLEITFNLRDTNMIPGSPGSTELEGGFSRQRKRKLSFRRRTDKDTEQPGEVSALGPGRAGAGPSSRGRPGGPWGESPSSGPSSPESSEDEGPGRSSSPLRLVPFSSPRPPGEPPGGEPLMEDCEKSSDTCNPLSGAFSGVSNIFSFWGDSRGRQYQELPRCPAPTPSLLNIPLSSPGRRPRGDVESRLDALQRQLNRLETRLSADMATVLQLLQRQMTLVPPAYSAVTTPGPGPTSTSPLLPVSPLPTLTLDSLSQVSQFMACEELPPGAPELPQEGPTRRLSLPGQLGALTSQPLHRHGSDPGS
row,Structure (SMILES),"hERG current change (%, negative = inhibition) at 10uM"
1,Cc1cccc(-n2c(-c3ccc(Br)o3)n[nH]c2=S)c1,17.5%
2,Cc1cc(N/N=C/c2ccc([N+](=O)[O-])o2)nc2ccccc12,1.15%
3,CCCCCC1CCC(c2ccc(C(N)=O)cc2)CC1 (centres unmarked),5.27%
4,O=c1c2ccccc2cnn1Cc1n[nH]c(=S)n1-c1cc(Cl)cc(Cl)c1,-2.93%
5,O=S(=O)(O)c1nc2ccccc2n1Cc1ccc(Cl)cc1,9.66%
6,CCOc1ccc(NC(=O)C2CCC(N3C(=O)C4CC=CCC4C3=O)CC2)cc1 (centres unmarked),4.51%
7,COc1ccc(C(=O)NCC(c2ccco2)N2CCCC2)cc1S(=O)(=O)N1CCCCC1C (centres unmarked),-36.8%
8,CCc1noc(C)c1C(=O)Nc1cc(S(=O)(=O)N2CCOCC2)ccc1OC(C)C,-45.1%
9,COc1cccc(/C=N/n2nnc3c(cnn3-c3ccccc3)c2=O)c1,6.82%
10,CS(=O)(=O)N1CCC(C(=O)Nc2ccc(Cl)c(C(F)(F)F)c2)CC1,-10.4%
11,Cc1cc(S(=O)(=O)N2CCN(c3ccccn3)CC2)ccc1F,6.15%
12,Cl.c1csc(CN2CCNCC2)c1,18.7%
13,O=C(O)C1CCCCC1C(=O)NC(c1ccccc1)c1ccccc1 (centres unmarked),1.81%
14,O=C1c2cccc([N+](=O)[O-])c2C(=O)N1CCO,20.2%
15,CC(C(=O)O)N1C(=O)c2ccccc2C1=O (centres unmarked),-1.85%
16,O=[N+]([O-])c1ccc(/C=N\N2CCN(c3ccc(Cl)cc3)CC2)cc1,16.8%
17,Cc1ccc(N(C(=O)CNC(=O)c2ccco2)C(C(=O)NC2CCCCC2)c2cccnc2)cc1F (centres unmarked),6.85%
18,CCOC(=O)c1sc(Nc2nc3c(OC)cccc3s2)cc1C,-0.888%
19,Cc1ccc(S(=O)(=O)C2CCOC2=O)cc1 (centres unmarked),3.23%

row,Structure (SMILES),"hERG current change (%, negative = inhibition) at 10uM"
1,Cl.c1ccc(SCCOCCN2CCOCC2)cc1,14.3%
2,CC(OC(=O)c1nn(C)c(=O)c2ccccc12)C(=O)Nc1ccc(S(N)(=O)=O)cc1 (centres unmarked),11.6%
3,O=C1COc2ccc(C(=O)/C=C/c3ccccc3)cc2N1,8.06%
4,COc1ccccc1CNC(=O)N1CCN(S(=O)(=O)c2ccc(C)cc2)CC1,28.9%
5,CCCCc1ncc(CN2CCC(CC3CCCCO3)(C(=O)OCC)CC2)[nH]1 (centres unmarked),-45%
6,Cc1ccc(O)c(C(=O)c2cc(C(=O)NCCC(C)C)c(=O)n(CCC(C)C)c2)c1,12.6%
7,Cc1nn(CC(=O)NC2CCCC2)c(C)c1[N+](=O)[O-],6.03%
8,COc1ccc(CS(=O)(=O)/C(Cl)=C(/Cl)C(=O)Nc2ccc(OC)nc2)cc1,11.6%
9,O=C(NCC1CCCO1)[C@@H]1CSC2c3ccccc3C(=O)N21 (some centres unmarked),6.89%
10,Cc1cccc(-n2nnc3c(=O)n(Cc4ccccn4)cnc32)c1,-7.65%
11,COc1ccc(NC(=O)CN(c2ccc(C)cc2)S(=O)(=O)c2c(C)nn(C)c2C)cc1OC,12%
12,COc1cc(C(=O)NCC(=O)OCC(=O)c2ccc[nH]2)cc(OC)c1OC,8.47%
13,Cn1c(SCC(=O)O)nnc1-c1ccc2ncccc2c1,12.9%
14,CN(C)c1ccc(CN(C(=O)c2cc3ccccc3oc2=O)C2CCS(=O)(=O)C2)cc1 (centres unmarked),-11.8%
15,Cc1cc(NC(=O)CCCC(=O)N(c2ccccc2)C(C(=O)NC2CCCCC2)c2cccs2)no1 (centres unmarked),-8.03%
16,CC/C(=N/NC(=O)c1ccc(Br)cc1)c1ccc(OCCN2CCOCC2)cc1,-23.2%
17,COCCn1c(SCC(=O)Nc2ccc(NC(C)=O)cc2)nc2ccccc2c1=O,12.1%
18,Cl.c1ccc2c(c1)nc(N1CCCCC1)c1ccccc12,-2.67%
19,CCN(CC)S(=O)(=O)c1ccc2c(c1)nc(CCC(=O)OCC(=O)Nc1cc(OC)cc(OC)c1)n2C,-48.5%

row,Structure (SMILES),"hERG current change (%, negative = inhibition) at 10uM"
1,c1ccc2c(c1)nc1n2CC2CON(C3CCCCC3)C12 (centres unmarked),-2.24%
2,CCNC(=O)COC(=O)COc1ccc(Cl)cc1C,7.93%
3,Cc1ccc(S(=O)(=O)Nc2cccnc2)cc1C,13.6%
4,CC(=O)NCc1c(Cl)cccc1-n1cccc1,11.6%
5,C/C(=N\Nc1nc2c(s1)CCCC2)c1ccc(Cl)cc1.Cl,-12.6%
6,CCN(Cc1cc2ccccc2[nH]c1=O)C(=O)c1cccnc1,-1.45%
7,COc1cccc(NC(C(=O)Nc2cccc(C(C)=O)c2)c2ccccc2)c1 (centres unmarked),-7.56%
8,COc1cccc(NC(=O)CN(C)C(=O)CNC(=O)c2ccc(Oc3ccccc3)cc2)c1,-31.4%
9,COc1ccc(C2C(C#N)=C(N)OC3=C2C(=O)CC(C)(C)C3)cc1OC (centres unmarked),-9.48%
10,CC1CCCCN1C(=O)CSc1nnc(-c2ccccc2F)o1 (centres unmarked),-0.439%
11,COc1cc([N+](=O)[O-])ccc1NC(=O)COC(=O)c1ccc(NC(N)=O)cc1,11%
12,Cc1oc(-c2ccccc2Cl)nc1CS(=O)CC(=O)N1CCN(c2ccccc2)CC1 (centres unmarked),-36.5%
13,O=C(NCc1cccnc1)C1c2ccccc2C(=O)N1C1CCCCCCC1 (centres unmarked),4.9%
14,CCCN1C(=O)C(Cc2nc3ccccc3c(=O)n2-c2ccccc2)c2cc(C)ccc21 (centres unmarked),-14.6%
15,CCCCc1nnc(NC(=O)CN2C(=O)c3ccccc3C2=O)s1,-4.47%
16,CC(C)N(CC#CCC1(O)c2ccccc2-c2ccccc21)CCO,2.43%
17,CC(=O)C(/C=N/c1ncc(C(F)(F)F)cc1Cl)=C(\C)O,10.5%
18,CC1CCN(S(=O)(=O)c2ccc(C(=O)Nc3ccccn3)cc2)CC1,5.08%
